Assay results published in PMC12136788.
Some of the results follow.

B1: ENSG00000124766:be:win_601|CDS|ENSG00000124766|bound_else_gene|NA|bound_elsewhere_windowed (ssRNA)
RNA: GGGAGUUCUACAGUCCGACGAUCUCCAAAGUGGCGGGCGGCGCGGGCGGUGGGGUUAGCAAACCGCACGCCAAGCUCAUCCUGGCAGGCGGCGGCGGCGGCGGGAAAGCAGCGGCUGCCGCCGCCGCCUCCUUCGCCGCCGAACAACAGAGGAUUGAGCAUCA
B2: chr1:151249111:151249212:+|3pUTR|ENSG00000143398|unk|FALSE|unique (ssRNA)
RNA: GGGAGUUCUACAGUCCGACGAUCGCAGAUUGUUGAAUUCCUGUUCUAUCCCUUCUCUAUCCCACCCUGCCUUGAUAAUAUGUUAGCCCAUACCCCAAAUAACUGUCUAUAUUAGACACCCCCAGCCAGUUUCUGGCUGCCUGUCAACAGAGGAUUGAGCAUCA
B3: chr6:145382534:145384023:-|three_prime_utr|ENSG00000112425|control|control|control (ssRNA)
RNA: GGGAGUUCUACAGUCCGACGAUCUCAACAUGAUUUAACAGAUCUAUAUGUUAAAGGAGAAAAAGAUAUGUGGAUGCUAUCAAUAGUAGCUGAAAAGCAUUUUCAGAAAUCUGUAAGUAGAGGAAAUGUAUUCAUAUGUUUCUACAACAGAGGAUUGAGCAUCA
B4: chr17:29262523:29262623:-|3pUTR|ENSG00000108256|msi1_unk|FALSE|overlapping (ssRNA)
RNA: GGGAGUUCUACAGUCCGACGAUCACUUUGACUGAUAUUGUAAUUUUCAAAUGUAUAAUAUGUUUACAGAUGUGCCCUGCAUUUAGUCUGCCUUGUUCCUAUUUUGAUUUUUGUUGAGUCUCCUGCCUGCUUGCCAAAAGCUAGCAACAGAGGAUUGAGCAUCA
B5: chr4:165277806:165277983:-|three_prime_utr|ENSG00000229894|control|control|control (ssRNA)
RNA: GGGAGUUCUACAGUCCGACGAUCCUUUUUACAUAAUGAAAGAACAACCCAGCAAUUGUCUCUUAAUGCGAUGACACUAUUCAUAGACUUUGAUUUUAUUUAUAAGCCACUUGCUGCGUGACCCUCCAAGUAGACCUGUGGCUUCAACAGAGGAUUGAGCAUCA
B6: chr16:46799225:46799326:-|3pUTR|ENSG00000155330|unk|total|mutant (ssRNA)
RNA: GGGAGUUCUACAGUCCGACGAUCUUACAUUUGGAAGUACAUGUAUAUAUGUUUAUAUAUUUUUAUUCUCAGGAUCUAUUUUCCCGGGAACUAUUUUUUUAAAUUAUUCUUUUGUGCUGCCUUAACCCAUUUAUUACCGUUUGACAACAGAGGAUUGAGCAUCA
B7: chr12:6347307:6347408:-|3pUTR|ENSG00000111319|msi1|FALSE|unique (ssRNA)
RNA: GGGAGUUCUACAGUCCGACGAUCGUCUGCUCCUCCUCUUGAACUUGGGUGGGAAACCCCACCCAAAAGCCCCCUUUGUUACUUAGGCAAUUCCCCUUCCCUGACUCCCGAGGGCUAGGGCUAGAGCAGACCCGGGUAAGUAAACAACAGAGGAUUGAGCAUCA
B8: chr14:92163265:92163366:+|3pUTR|ENSG00000165934|msi1|FALSE|bound_elsewhere (ssRNA)
RNA: GGGAGUUCUACAGUCCGACGAUCUAAUAUCAGACUCGAAUUACUAUUUCAUUCUAUUUCAAAUGCUUAUAAAGCUACUAUUGUAGAUUAUAGUGUUAAUGCAAAGUUUACAGACUUUUGAUAUGGAAAACCAGAUAAAACAAUCAACAGAGGAUUGAGCAUCA
B9: ENSG00000198589:be:win_3351|CDS|ENSG00000198589|bound_else_gene|NA|bound_elsewhere_windowed (ssRNA)
RNA: GGGAGUUCUACAGUCCGACGAUCCAGUCCUACUGAGGAAGCUAAUCUACCCACAGAGCUCCAAGAUAACAGUUUGUCUCCAGCUGCAUCUGAAGCCGGUGAAAAACUGGACAUGUUUGGUAAUGAUGACAAAUUAAUAUUUCACAACAGAGGAUUGAGCAUCA
B10: chr7:38725943:38726055:-|3pUTR|ENSG00000006715|unk|FALSE|unique (ssRNA)
RNA: GGGAGUUCUACAGUCCGACGAUCGAAAUUUUGGGGUCCAUAGUGAAUAUUUUGUUAUUUAUUUGUUUGGCUCAUUCUUUAUAUAGUAAUGGAAACAUAAGUCUAGGAGUUAGAAAUGAAUUUUUUAGACCUUAGUAAAACCAUCAACAGAGGAUUGAGCAUCA
B11: chr12:54350855:54350965:+|3pUTR|ENSG00000111481|msi1|total|mutant (ssRNA)
RNA: GGGAGUUCUACAGUCCGACGAUCUUGCCCUGACAUUUUUGUAAAUUCUGUGCCCUUUGCUGCCGCUACACUUCAGAUUAAAGCCGGAGAAAGAAUGUGCUGAGUGUUUUCCUCCCUUUGCCUCUACCUGGCCCUCAUCCCAACCAACAGAGGAUUGAGCAUCA
B12: chr17:5489330:5489445:+|CDS|ENSG00000167842|unk|total|mutant (ssRNA)
RNA: GGGAGUUCUACAGUCCGACGAUCACGUUGACUUUCUUUGAUGAGCUUCAUAAUGUUGGCAGAGAUCAUGGGACCCGUGAUUUCCGGGAGAGUUCCGUAUCCCUGGUUCAGAACUCCAGAAAACUACAGAACAUCCGAGACAAUCAACAGAGGAUUGAGCAUCA
B13: chrX:135156539:135157311:-|three_prime_utr|ENSG00000169551|control|control|control (ssRNA)
RNA: GGGAGUUCUACAGUCCGACGAUCUUUAUUCUGUUUAUCUUUCCUUUUAUGAGCAGUAAAGGGGCUGGUUUAACUUAAAAGGUUAGCUUAGUAAGCCUAAAUAGUAUUUUAUAUAUGACUUUUCUGGCAAAUCUAAUUGAGACACAACAGAGGAUUGAGCAUCA
B14: chr7:128862928:128863052:+|CDS|ENSG00000128524|unk|FALSE|unique (ssRNA)
RNA: GGGAGUUCUACAGUCCGACGAUCUAAGCUCAUCGCAGUGAUCGGAGACGAGGACACGGUGACUGGUUUCCUGCUGGGCGGCAUAGGGGAGCUUAACAAGAACCGCCAUCCCAAUUUCCUGGUGGUGGAGAAGGAUACAACCAUCAACAGAGGAUUGAGCAUCA

Target: MSI1 full-length (mouse, UniProt Q61474 1-362)
Assay: nsRBNS (natural sequence RNA bind-n-seq); RBNS binding buffer (assumed for nsRBNS): 25 mM Tris pH 7.5, 150 mM KCl, 3 mM MgCl2, 0.01% Triton X-100, 500 ug/ml BSA, 20 U/ml SUPERase-In, 4 C; UNK is unkempt and MSI1 is Musashi-1; names of the RNAs are library labels; protein concentration not given here; high values mean tight binding

Sequence of UniProt Q61474 (Q61474 whole entry): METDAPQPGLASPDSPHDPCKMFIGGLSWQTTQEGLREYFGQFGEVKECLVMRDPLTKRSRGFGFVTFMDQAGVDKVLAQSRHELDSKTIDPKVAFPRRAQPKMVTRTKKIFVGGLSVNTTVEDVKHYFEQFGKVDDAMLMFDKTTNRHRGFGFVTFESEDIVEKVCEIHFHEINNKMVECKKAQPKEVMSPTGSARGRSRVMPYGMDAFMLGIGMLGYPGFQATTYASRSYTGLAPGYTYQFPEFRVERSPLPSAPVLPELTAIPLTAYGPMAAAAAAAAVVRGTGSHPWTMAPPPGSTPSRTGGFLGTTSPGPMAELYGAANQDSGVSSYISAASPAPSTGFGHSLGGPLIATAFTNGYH

Point of comparison: B13, binding signal 1.36 enrichment R. Against it:
- B1 — lower, 0.299 enrichment R
- B2 — lower, 1.2 enrichment R
- B3 — lower, 1.04 enrichment R
- B4 — lower, 1.35 enrichment R
- B5 — higher, 1.87 enrichment R
- B6 — lower, 1.17 enrichment R
- B7 — higher, 1.39 enrichment R
- B8 — higher, 1.76 enrichment R
- B9 — lower, 0.241 enrichment R
- B10 — higher, 6.63 enrichment R
- B11 — lower, 0.502 enrichment R
- B12 — lower, 0.323 enrichment R
- B14 — lower, 0.46 enrichment R
